This list was built around the results that the source calls inconclusive (neither active nor inactive); the mix of calls is not that of the screen. For some of these results: A potency beside an inconclusive call is a rough fit, not a confirmed value. Active and inactive are the calls of the source. Calls come from the whole dose curve; as a rule, active = well fitted curve in the direction sought with a large enough effect; inconclusive = small, poorly fitted or top-dose-only effect, or another doubt; inactive = no such curve, though single readings can be large; an effect the other way counts as inactive or inconclusive.
What was measured:
[1] = qHTS of pediatric cancer cell lines to identify multiple opportunities for drug repurposing: Primary screen for DAOY cells (AID 1347090); settings: DAOY medulloblastoma viability, CellTiter-Glo luminescence, 48 h; activity change, negative = cytotoxic: at 46 µM (top of the series); note: nearly all actives have a fitted effect of over 55% in size
In short: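 Cell viability, CellTiter-Glo luminescence; 500-1,000 cells/well, 8- or 11-point titration, 48 h compound exposure at 37 degrees C, 5% CO2. Controls: DMSO neutral, bortezomib 2.3 µM final as positive.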

[2] = qHTS of pediatric cancer cell lines to identify multiple opportunities for drug repurposing: Primary screen for U-2 OS cells (AID 1347096); note: nearly all actives have a fitted effect of over 50% in size
In short: (§1)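 Cells (500-1,000/well) rested 5 h, then received compounds for 48 h; metabolically active cells were measured by CellTiter-Glo luminescence. Final concentrations spanned up to 46 µM (MIPE, 11-point) or 0.59 nM-46 µM (NPC, 8-point) in primary screens, 11-point in follow-ups.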

[3] = qHTS of pediatric cancer cell lines to identify multiple opportunities for drug repurposing: Primary screen for SK-N-SH cells (AID 1347098); note: nearly all actives have a fitted effect of over 65% in size
In short: as §1

[4] = qHTS of pediatric cancer cell lines to identify multiple opportunities for drug repurposing: Primary screen for Rh30 cells (AID 1347107); note: nearly all actives have a fitted effect of over 75% in size
In short: as §1

[5] = qHTS of pediatric cancer cell lines to identify multiple opportunities for drug repurposing: Primary screen for BT-37 cells (AID 1347094)
In short: (§2)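 Readout: CellTiter-Glo luminescence, 48 h treatment. Controls DMSO (neutral) and bortezomib 2.3 µM final (positive). Potency and efficacy taken from primary-screen concentration-response curves.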

[6] = qHTS of pediatric cancer cell lines to identify multiple opportunities for drug repurposing: Primary screen for NB-EBc1 cells (AID 1347095)
In short: as §2

[7] = qHTS of pediatric cancer cell lines to identify multiple opportunities for drug repurposing: Primary screen for BT-12 cells (AID 1347101); note: nearly all actives have a fitted effect of over 25% in size
In short: as §1

[8] = qHTS of pediatric cancer cell lines to identify multiple opportunities for drug repurposing: Primary screen for Rh18 cells (AID 1347102); note: nearly all actives have a fitted effect of over 65% in size
In short: as §1

[9] = qHTS of pediatric cancer cell lines to identify multiple opportunities for drug repurposing: Primary screen for OHS-50 cells (AID 1347103); note: nearly all actives have a fitted effect of over 40% in size
In short: as §1

[10] = qHTS of pediatric cancer cell lines to identify multiple opportunities for drug repurposing: Primary screen for RD cells (AID 1347104); note: nearly all actives have a fitted effect of over 55% in size
In short: as §2

[11] = qHTS of pediatric cancer cell lines to identify multiple opportunities for drug repurposing: Primary screen for MG 63 (6-TG R) cells (AID 1347105); settings: MG 63 (6-TG R) viability, CellTiter-Glo, 48 h; activity change, negative = cytotoxic: at 46 µM (top of the series); note: nearly all actives have a fitted effect of over 50% in size
In short: as §2

[12] = qHTS of pediatric cancer cell lines to identify multiple opportunities for drug repurposing: Primary screen for Rh41 cells (AID 1347108); note: nearly all actives have a fitted effect of over 70% in size
In short: as §2

[13] = qHTS of pediatric cancer cell lines to identify multiple opportunities for drug repurposing: Primary screen for NB1643 cells (AID 1347099); note: nearly all actives have a fitted effect of over 50% in size
In short: as §2

[14] = qHTS of pediatric cancer cell lines to identify multiple opportunities for drug repurposing: Primary screen for LAN-5 cells (AID 1347100); settings: LAN-5 neuroblastoma viability, CellTiter-Glo luminescence, 48 h; activity change, negative = cytotoxic: at 46 µM (top of the series)
In short: as §1

[15] = qHTS of pediatric cancer cell lines to identify multiple opportunities for drug repurposing: Primary screen for Saos-2 cells (AID 1347097); note: nearly all actives have a fitted effect of over 40% in size
In short: as §2

[16] = qHTS of pediatric cancer cell lines to identify multiple opportunities for drug repurposing: Primary screen for control Hh wild type fibroblast cells (AID 1347106); note: nearly all actives have a fitted effect of over 55% in size;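 for activity change, negative = cytotoxic: a drop in luminescence marks cytotoxicity and a rise apparent proliferation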
In short: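 Viability after 48 h compound treatment at 37C, 500-1,000 cells/well, read as ATP luminescence with CellTiter-Glo. Primary screens used 11-point (MIPE, 0.78 nM-46 µM) or 8-point (NPC, 0.59 nM-46 µM) final concentrations; follow-up screens used 11-point dilutions.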

[17] = qHTS of pediatric cancer cell lines to identify multiple opportunities for drug repurposing: Primary screen for SK-N-MC cells (AID 1347093); settings: SK-N-MC viability, CellTiter-Glo luminescence, 48 h; activity change, negative = cytotoxic: at 46 µM (top of the series)
In short: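 Metabolically active cells were quantified by ATP-dependent luminescence (CellTiter-Glo, 15 min at room temperature) following 48 h treatment. Cells had been plated at 500-1,000 per well and settled for 5 h beforehand.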

Measured: Potency
Potency is the fitted concentration of half-maximal effect; tags give direction and shape of the fitted curve.

COc1ccc2c(c1)c(CC(=O)OCC(=O)O)c(C)n2C(=O)c1ccc(Cl)cc1
inconclusive: [3] 42.9 µM [cytotoxic, single point] | [4] 20.9 µM [cytotoxic, single point]
inactive: [1] | [2]

CCc1cc(-c2n[nH]c(C)c2-c2ccc3c(c2)OCCO3)c(O)cc1O
inconclusive: [1] 11.8 µM [cytotoxic, partial curve] | [5] 6.85 µM [cytotoxic, full curve] | [7] 7.69 µM [cytotoxic, full curve] | [10] 3.72 µM [cytotoxic, full curve] | [11] 9.35 µM [cytotoxic, full curve, poor fit] | [12] 7.43 µM [cytotoxic, full curve]
active: [6] 4.69 µM | [2] 11.8 µM | [8] 6.62 µM | [9] 9.68 µM

CCN(CC)CCCCNc1nc2cc(Cl)c(Cl)cc2nc1-c1ccc(-c2cccs2)s1
inconclusive: [1] 37.2 µM [cytotoxic, single point] | [2] 29.6 µM [cytotoxic, single point] | [3] 42.9 µM [cytotoxic, single point] | [13] 26.4 µM [cytotoxic, single point] | [4] 33.2 µM [cytotoxic, single point]
active: [14] 26.4 µM | [7] 34.3 µM | [9] 19.3 µM | [10] 18.7 µM | [12] 23.5 µM

COc1cc2ncnc(Nc3ccc(F)c(Cl)c3)c2cc1NC(=O)C=CCN1CCCCC1
inconclusive: [1] 14.8 µM [cytotoxic, partial curve] | [2] 23.5 µM [cytotoxic, single point] | [3] 21.5 µM [cytotoxic, partial curve] | [4] 13.2 µM [cytotoxic, partial curve] | [12] 18.7 µM [cytotoxic, partial curve]
active: [6] 26.4 µM | [15] 16.6 µM | [13] 14.8 µM | [10] 29.6 µM

CC(C)[C@H](C(=O)Nc1ccc(C(=O)NO)cc1)c1ccccc1
active: [1] 1.87 µM | [6] 0.526 µM | [2] 1.18 µM | [3] 2.41 µM | [14] 0.526 µM | [7] 3.06 µM | [16] 16.6 µM | [12] 1.18 µM
inconclusive: [4] 4.18 µM [cytotoxic, full curve]

CCOC(=O)C(C)Oc1cccc2c(=O)n(CC(=O)Nc3ccc4c(c3)OCCO4)ccc12 (configuration not stated)
inconclusive: [1] 37.2 µM [cytotoxic, single point] | [17] 29.6 µM [cytotoxic, single point] | [13] 37.2 µM [cytotoxic, single point]
inactive: [9] | [16]

Cn1cc(-c2[nH]c3cc(NC(=O)[C@H](N)C4CCCCC4)cc4c3c2C=NNC4=O)cn1
active: [6] 0.59 µM | [2] 11.8 µM | [10] 14.8 µM
inconclusive: [1] 2.35 µM [cytotoxic, full curve] | [5] 1.37 µM [cytotoxic, full curve] | [13] 2.35 µM [cytotoxic, full curve] | [8] 18.7 µM [cytotoxic, partial curve] | [11] 5.9 µM [cytotoxic, full curve] | [4] 4.69 µM [cytotoxic, full curve] | [12] 4.69 µM [cytotoxic, full curve]

Cc1cc(Nc2cc(N3CCN(C)CC3)nc(C=Cc3ccccc3)n2)n[nH]1
active: [1] 42.9 µM | [6] 4.29 µM | [2] 34 µM | [3] 3.5 µM | [14] 0.679 µM | [7] 7.89 µM | [9] 2.22 µM | [10] 21.5 µM | [16] 38.2 µM | [4] 34 µM

— PubChem BioAssay (NCATS)
